Data from PubChem BioAssay AID485344 (National Center for Advancing Translational Sciences (NCATS), 2010).
About 6,900 (2%) of roughly 340,000 compounds were called active. Rule as the data show it: active = inhibition above about 30%; inactive = below that, where a call was filed. The list shows a part of the results, in another mix than the full data. The source gives no active or inactive call for entries shown without one.

biological target: D(2) dopamine receptor (Homo sapiens) (UniProt P14416); assay: HTS Assay for Allosteric Antagonists of the Human D2 Dopamine Receptor: Primary Screen for Antagonists; settings: HEK293 TREx D2 cells, calcium flux, dopamine EC80; at 10 µM; stronger effect = higher value; also: 0% is about no effect
Chain of UniProt P14416 (P14416 whole entry, looked up): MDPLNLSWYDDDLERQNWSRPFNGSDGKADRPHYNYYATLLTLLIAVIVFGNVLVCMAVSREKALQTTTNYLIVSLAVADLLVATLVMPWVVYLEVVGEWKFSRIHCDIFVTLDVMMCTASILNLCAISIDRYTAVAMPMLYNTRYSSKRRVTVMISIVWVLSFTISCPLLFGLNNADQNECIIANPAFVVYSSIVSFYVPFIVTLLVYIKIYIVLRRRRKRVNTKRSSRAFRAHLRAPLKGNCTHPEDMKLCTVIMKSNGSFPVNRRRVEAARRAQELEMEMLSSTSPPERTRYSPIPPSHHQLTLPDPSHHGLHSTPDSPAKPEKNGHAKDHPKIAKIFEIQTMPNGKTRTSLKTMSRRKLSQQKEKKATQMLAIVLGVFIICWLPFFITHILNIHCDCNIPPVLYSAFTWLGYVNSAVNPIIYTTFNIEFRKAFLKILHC
Procedure, shortened: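 Tetracycline-induced HEK293 T-REx cells expressing D2 force-coupled to calcium signalling were dye-loaded, exposed to compound for 180 s, then challenged with an EC80 of dopamine; calcium flux was followed kinetically for a further 180 s.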

Row | SMILES | inhibition
1 | COc1cccc(-c2nc(SCC(=O)Nc3ccc4c(c3)OCCO4)c(-c3ccccc3)[nH]2)c1 | -7.85%
2 | O=C(NCCn1cc(SCc2ccc(Cl)cc2)c2ccccc21)c1cccs1 | 1.03%
3 | COc1cc(OC)c(N(C)C(=O)CCNC(=O)Cn2cnc3ccccc3c2=O)cc1Cl | 19.5%
4 | CN(C)CCNC(=O)Cn1c(=O)c2cccn2c2ccc(F)cc21 | -16.2%
5 | O=S1(=O)c2ccccc2N(Cc2cccc(C(F)(F)F)c2)c2ccccc21 | 6.63%
6 | CCCCN(CCCC)CCNC(=O)Cn1nc(CC)n2c(cc3sc(C)cc32)c1=O | 4.51%
7 | Cc1cccc(NC(=O)Cn2c(=O)n(CCCS(=O)(=O)C3CCCCC3)c(=O)c3ccccc32)c1 | -2.16%
8 | CCOCCCNC(=O)c1[nH]c2cc(C)ccc2c1Sc1ccc(Cl)cc1 | 12.2%
9 | CCOC(=O)c1ccc(-n2c(C)nc3c(cnn3-c3ccc(Cl)cc3)c2=O)cc1 | 9.62%
10 | c1ccc(Cc2nnc3sc(-c4cccs4)nn23)cc1 | active: 73.1%
11 | COc1ccc(CCNC(=O)c2c(O)nc3c(C)cccn3c2=O)cc1 | 6.15%
12 | COc1ccc(C(=O)N2c3ccccc3C(C)(c3ccc(Cl)cc3)CC2(C)C)cc1 (stereo unspecified) | -17.3%
13 | Cc1ccc(-c2onc(C)c2C)cc1S(=O)(=O)N1c2ccccc2CC1C (stereo unspecified) | -5.05%
14 | Cc1ccccc1Nc1c(-c2ccco2)nc2c(C)cccn12 | 5.79%
15 | O=C(c1cccc(C(F)(F)F)c1)C1CCCN(Cc2cccn2-c2ncccn2)C1 (stereo unspecified) | active: 32%
16 | Cc1ccc(NC(=O)CCS(=O)(=O)c2cccc3nonc23)cc1Cl | 3.5%
17 | CC1CCCCN1S(=O)(=O)c1ccc(C(=O)Nc2sc3c(c2C(N)=O)CC(C)(C)NC3(C)C)cc1 (stereo unspecified) | 5.26%
18 | Cc1ccc(CS(=O)(=O)c2ncc(Cl)c(C(=O)Nc3nc4ccc(C)cc4s3)n2)cc1 | -15.4%
19 | Cc1n[nH]c(C)c1S(=O)(=O)N(CC(=O)Nc1ccc(C(F)(F)F)cc1)c1ccc(C(C)C)cc1 | 11%
20 | Cn1c(=O)[nH]c(=O)c2c1nc(N1CCN(CCO)CC1)n2Cc1ccccc1Cl | active: 30%
21 | Cc1ccc(C)c(CN2C(=O)c3ccccc3S(=O)(=O)c3ccc(C(=O)N4CCN(c5ccccc5)CC4)cc32)c1 | 1.06%

Row | SMILES | inhibition
22 | COc1ccccc1OCCSc1nc2ccccc2n1CC(=O)N1CCOCC1 | 15.5%
23 | C#CCSc1nc2sc3c(c2c(=O)n1Cc1ccccc1)CCCC3 | 13.3%
24 | O=C(Cn1c(=O)oc2ccccc21)Nc1ccc(C(=O)O)cc1 | 5.92%
25 | COc1cc(NC(=O)c2cccc3c2C(=O)N(C2CCCCC2)C3)cc(OC)c1 | 1.84%
26 | CCn1c(=O)c(C(=O)Nc2ccc(C(C)=O)cc2)nc2ccccc21 | 8.98%
27 | CCOc1ccccc1NC(=O)CSc1nc2cc(OC)c(OC)cc2c2nc(-c3ccccc3)nn12 | -7.67%
28 | Oc1c(C(c2ccc(Cl)cc2)N2CCC3(CC2)OCCO3)sc2nc(-c3ccco3)nn12 (stereo unspecified) | 3.34%
29 | O=C(NCCc1ccc(Cl)cc1)c1cnc2sc(N3CCCCC3)nn2c1=O | 0.0221%
30 | COc1ccc2c(c1)sc1ncc(C(=O)NCc3ccc(OC(C)C)cc3)c(=O)n12 | 6.73%
31 | Cc1ccc(NC(=O)Cn2c(=O)n(Cc3ccco3)c(=O)c3sc4ccccc4c32)cc1C | 15.4%
32 | COc1ccc(-c2cc(C(F)(F)F)nc(SCCC(=O)Nc3cc(C)ccc3O)n2)cc1 | 7.81%
33 | CCc1ccc(-c2[nH]c3c(c2-c2sc(C)c(C(=O)OC)c2O)c(=O)[nH]c(=O)n3C)cc1 | 0.614%
34 | Cc1nn(C(=O)c2ccc(Br)cc2)c(C)c1S(=O)(=O)N1CCOCC1 | -0.897%
35 | Cc1coc2c(C)c3oc(=O)c(CCC(=O)NCCc4ccccc4)c(C)c3cc12 | -4.91%
36 | CCOc1ccc(CCNC(c2cccc(Cl)c2)c2nnc(-c3ccccc3)o2)cc1OCC (stereo unspecified) | -0.21%
37 | Cn1c(NCCO)nc2c1c(=O)n(Cc1cccc(F)c1)c(=O)n2C | 7.11%
38 | COC(=O)c1ccc2c(c1)N(Cc1ccc(F)cc1)C(=O)c1ccccc1S2 | 5.33%
39 | COc1cccc(/C=C/c2nc(C#N)c(NCCc3ccc(OC)c(OC)c3)o2)c1 | -4.97%
40 | CCCCN(CCCC)S(=O)(=O)c1ccc2oc(C(=O)NCc3ccc(C)cc3)c(C)c2c1 | -3.76%
41 | CCCCN1C(=O)C(O)(c2c[nH]c3ccccc23)c2cc(Br)ccc21 (stereo unspecified) | 0.196%
42 | COc1ccc(Cl)cc1-n1c(/C=C/c2cccc3ccccc23)nc2ccccc2c1=O | -4.22%

Row | SMILES | inhibition
43 | COc1ccc(-c2nc(CSc3nncn4c3cc3occc34)c(C)o2)cc1 | -5.06%
44 | Clc1cccc(OCCCN2CCCC2)c1Cl | active: 51.6%
45 | Cc1ccccc1-c1noc(CCC(=O)Nc2cccc(C)c2C)n1 | -3.67%
46 | O=C(Nc1cccc(OCc2cc(=O)n3c4c(sc3n2)CCCC4)c1)c1ccc(F)cc1 | 11.4%
47 | Cc1ccc2nc(-c3cc(NC(=O)/C=C/c4ccccc4)ccc3Cl)oc2c1 | -1.98%
48 | CCOc1ccc(-c2nnc(SCC(=O)NCCc3ccc(OC)c(OC)c3)nc2-c2ccc(OCC)cc2)cc1 | 16.2%
49 | O=C(c1cccc(Cl)c1)N1CCN(CCc2ccncc2)CC1 | -6.82%
50 | COc1cc(Cl)c(C)cc1NC(=O)c1cn(C2CCCC2)c(=O)c2c1c1ccccc1n2C | 2.67%
51 | CCOc1ccccc1NC(=O)Cn1c(=O)n(-c2ccc(F)cc2)c(=O)c2sc3ccccc3c21 | -5.59%
52 | COc1ccccc1C1SCCN1S(=O)(=O)c1cccc(C(F)(F)F)c1 (stereo unspecified) | active: 47.4%
53 | COc1ccc(CCNC(=O)CCCn2c(=O)c3ccccc3n(CC(=O)Nc3cc(Cl)ccc3C)c2=O)cc1OC | 20.3%
54 | Cn1c(NCCO)nc2c(c1=O)C1(CCCCC1)Cc1ccccc1-2 | active: 67.7%
55 | CCOC(=O)c1c(NC(=O)COc2cc(C)ccc2C(C)C)sc(C)c1C | -5.78%
56 | CCOc1cccc(C(c2c(C)n(C)n(-c3ccccc3)c2=O)c2c(C)n(C)n(-c3ccccc3)c2=O)c1OC | 4.46%
57 | COCCNCC1C(Oc2ccc(Cl)cc2)C(=O)N1c1ccccc1C (stereo unspecified) | active: 50.4%
58 | Cc1ccc(CSCC(=O)N2CCN(c3ccccc3F)CC2)cc1 | -23.4%
59 | CCn1cc(CCC(=O)NCc2ccccc2OC)c2ccccc21 | 11.4%
60 | Cc1ccc(S(=O)(=O)CC(=O)Nc2sc3c(c2C#N)CCCC3)cc1 | -25.3%
61 | CC1=C(C(=O)Nc2ccccc2)C(c2cccnc2)n2nc(SCc3ccccc3Cl)nc2N1 (stereo unspecified) | -8.69%
